This is one part of the list. The data describe in vitro nicking of single-stranded DNA by Rep domains for 1 h at 37 °C with 3 µM enzyme; only the middle of the 90-letter strands is printed. Values are log2 of uncut reads against the no-enzyme pool; more negative means more cut, near 0 not cut, and no call is made. The scaling is to total reads; values above 0 arise when much of the pool is cut.
Legend:
Assay in all cases: uncleaved DNA left, log2 of reads against the no-enzyme library (log2 ratio); higher = less cleavage (more negative = more Rep cleavage of the k-mer); sequences stand for … in CTCGTCCG…ACCGGAGA
[1] = test system: T1, Rep nickase domain of Muscovy duck circovirus
T1 sequence (protein, residues 1-111, tag omitted): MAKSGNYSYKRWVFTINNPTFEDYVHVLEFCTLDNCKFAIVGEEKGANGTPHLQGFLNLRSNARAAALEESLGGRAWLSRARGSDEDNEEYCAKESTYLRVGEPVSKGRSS
Experimental: (§1)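 A pool of 90-nt single-stranded DNAs with seven random bases just before the constant AC of the nick site (name = the seven bases) was cut by 3 µM recombinant His6-SUMO-tagged Rep nickase domain (300 nM DNA, 50 mM HEPES pH 8.0, 50 mM NaCl, 1 mM MnCl2, 1 h, 37 °C, three replicates). Uncut DNA was amplified and sequenced.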

[2] = test system: T2, Rep nickase domain of banana bunchy top virus
T2 sequence (protein, residues 1-94, tag omitted): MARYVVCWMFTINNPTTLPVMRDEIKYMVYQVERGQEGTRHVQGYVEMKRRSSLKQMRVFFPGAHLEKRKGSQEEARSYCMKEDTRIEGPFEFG
Experimental: as §1

[3] = test system: T3, Rep nickase domain of cabbage leaf curl virus
T3 sequence (protein, residues 1-116, tag omitted): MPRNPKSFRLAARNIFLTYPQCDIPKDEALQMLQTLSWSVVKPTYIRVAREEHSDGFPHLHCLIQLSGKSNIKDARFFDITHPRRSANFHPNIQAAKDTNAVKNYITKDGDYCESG
Experimental: as §1

[4] = test system: T4, Rep nickase domain of chickpea chlorotic dwarf virus
T4 sequence (protein, residues 1-124, tag omitted): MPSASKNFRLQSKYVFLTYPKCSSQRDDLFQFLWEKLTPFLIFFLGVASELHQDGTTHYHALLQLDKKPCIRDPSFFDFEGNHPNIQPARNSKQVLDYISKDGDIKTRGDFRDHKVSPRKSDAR
Experimental: as §1

[5] = test system: T5, Rep nickase domain of faba bean necrotic yellows virus
T5 sequence (protein, residues 1-98, tag omitted): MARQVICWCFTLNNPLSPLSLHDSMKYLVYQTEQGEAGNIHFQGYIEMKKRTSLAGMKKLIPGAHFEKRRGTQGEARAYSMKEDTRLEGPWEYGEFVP
Experimental: as §1

[6] = test system: T6, Rep nickase domain of maize striate mosaic virus
T6 sequence (protein, residues 1-117, tag omitted): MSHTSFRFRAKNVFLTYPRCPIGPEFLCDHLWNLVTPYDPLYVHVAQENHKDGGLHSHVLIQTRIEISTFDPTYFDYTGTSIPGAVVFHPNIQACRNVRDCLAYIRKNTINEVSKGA
Experimental: as §1

[7] = test system: T7, Rep nickase domain of porcine circovirus 2
T7 sequence (protein, residues 2-116, tag omitted): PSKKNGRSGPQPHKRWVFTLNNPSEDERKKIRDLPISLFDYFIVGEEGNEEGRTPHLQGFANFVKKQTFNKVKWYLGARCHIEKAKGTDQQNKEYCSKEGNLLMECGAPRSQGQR
Experimental: as §1

[8] = test system: T8, Rep nickase domain of tomato golden mosaic virus
T8 sequence (protein, residues 1-124, tag omitted): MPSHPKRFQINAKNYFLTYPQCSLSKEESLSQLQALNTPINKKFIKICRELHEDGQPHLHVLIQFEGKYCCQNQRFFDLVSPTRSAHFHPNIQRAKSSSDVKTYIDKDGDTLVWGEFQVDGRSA
Experimental: as §1

[9] = test system: T9, Rep nickase domain of tomato yellow leaf curl virus
T9 sequence (protein, residues 1-136, tag omitted): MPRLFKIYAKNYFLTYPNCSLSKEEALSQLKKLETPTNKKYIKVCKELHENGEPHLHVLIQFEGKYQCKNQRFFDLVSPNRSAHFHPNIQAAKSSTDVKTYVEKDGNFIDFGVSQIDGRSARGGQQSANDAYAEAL
Experimental: as §1

[10] = test system: T10, Rep nickase domain of wheat dwarf virus
T10 sequence (protein, residues 1-137, tag omitted): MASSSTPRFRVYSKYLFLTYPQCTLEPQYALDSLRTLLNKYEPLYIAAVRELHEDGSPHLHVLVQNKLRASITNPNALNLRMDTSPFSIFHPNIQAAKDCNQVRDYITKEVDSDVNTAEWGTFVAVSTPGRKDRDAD
Experimental: as §1

Row | Sequence | uncleaved DNA left (log2) [1] | uncleaved DNA left (log2) [2] | uncleaved DNA left (log2) [3] | uncleaved DNA left (log2) [4] | uncleaved DNA left (log2) [5] | uncleaved DNA left (log2) [6] | uncleaved DNA left (log2) [7] | uncleaved DNA left (log2) [8] | uncleaved DNA left (log2) [9] | uncleaved DNA left (log2) [10]
1 | GCAAATC | -0.0435 | -0.0207 | -0.0167 | 0.232 | -0.153 | -0.281 | -0.00897 | -0.0739 | -0.083 | -0.0783
2 | GATAGGG | 0.0787 | 0.107 | 0.0167 | 0.341 | 0.0378 | -0.083 | 0.195 | 0.0523 | 0.14 | 0.0582
3 | CGATTGT | -0.0571 | 0.0289 | -0.0164 | 0.578 | 0.0241 | 1.21 | -0.0252 | -0.175 | -0.0926 | -0.0169
4 | GCTTATT | -2.74 | -1.2 | -0.278 | -1.56 | -0.149 | 0.257 | -2.91 | -0.00126 | 0.0901 | -0.447
5 | TATGGCT | -0.188 | -0.122 | -0.846 | -1.8 | -0.0957 | -0.847 | -0.164 | -0.181 | -0.192 | -0.356
6 | AAGGGGC | -0.00526 | -0.114 | 0.123 | 0.647 | -0.0619 | 0.208 | 0.0978 | -0.0791 | -0.0163 | 0.0294
7 | GAAAAAG | 0.0186 | 0.0271 | -0.588 | -0.52 | 0.0868 | -0.964 | 0.191 | 0.0708 | -0.0148 | -0.0764
8 | GTTCTTT | 0.039 | 0.0138 | 0.329 | 0.711 | -0.074 | 1.7 | 0.0489 | 0.122 | 0.158 | 0.0437
9 | CTTTCAT | -0.0791 | 0.108 | 0.0957 | -0.833 | 0.0826 | -0.481 | -0.28 | -0.0551 | 0.111 | 0.177
10 | TTGCTCA | 0.0245 | -0.101 | -0.459 | -0.909 | -0.0871 | -0.973 | -0.0016 | -0.0356 | -0.0483 | -0.0409
11 | AAGAGCA | -0.0225 | 0.0612 | -0.147 | -0.595 | 0.00347 | -0.601 | -2.22 | 0.14 | 0.119 | 0.0182
12 | GTTCGAG | 0.00318 | 0.0306 | 0.435 | 1.12 | 0.0208 | 0.899 | 0.148 | -0.0095 | -0.0681 | 0.166
13 | GCCCCAC | -0.169 | 0.0759 | 0.0574 | 0.26 | -0.0365 | 0.0916 | -0.148 | -0.12 | 0.0369 | 0.0593
14 | ATATAAC | 0.0722 | -0.0117 | -0.477 | -1.73 | 0.0951 | -0.834 | 0.159 | 0.18 | -0.0251 | 0.0907
15 | TCTACTG | 0.132 | -0.0707 | 0.0193 | 0.0997 | 0.0225 | 1.14 | -0.0015 | 0.036 | -0.0778 | -0.00215
16 | CAATTTT | -4.15 | -3.04 | -4.58 | -3.94 | -0.225 | -3.75 | -4.68 | -4.32 | -2.41 | -4.43
17 | ATCCGTA | -0.0343 | -0.0518 | -0.119 | -0.733 | 0.0448 | -0.892 | -0.0429 | -0.0513 | -0.0119 | 0.0235
18 | ACTCCCC | 0.0021 | -0.12 | 0.0152 | -0.237 | -0.0811 | -0.254 | -0.588 | -0.0421 | -0.177 | 0.00926
19 | ATGAAAA | 0.0143 | -0.0104 | 0.0615 | 0.0744 | 0.0255 | -0.702 | -0.0229 | 0.0578 | -0.0766 | 0.0107
20 | GATTATT | -2.81 | -2.84 | -1.79 | -2.35 | -2.36 | 0.52 | -3.17 | -2.16 | -0.0221 | -0.955
21 | TACGACC | 0.132 | 0.0787 | 0.0454 | 0.211 | 0.131 | -0.165 | 0.103 | 0.0519 | 0.0747 | 0.1
22 | TTACACG | -0.11 | -0.189 | -1.1 | -1.39 | -0.0682 | -1.38 | 0.0292 | -0.189 | -0.0671 | -0.215
23 | CAGGAGT | 0.159 | -0.125 | 0.158 | 1.21 | -0.0831 | 1.42 | 0.0146 | -0.0684 | -0.129 | -0.0144
24 | TTGTAGA | -0.0313 | 0.0099 | -0.0592 | -0.389 | 0.0545 | -0.963 | 0.0456 | -0.0172 | 0.0442 | -0.0735
25 | GCGCACC | -0.0464 | 0.0124 | 0.0666 | 0.2 | -0.101 | 0.0871 | -0.0276 | -0.0604 | 0.023 | -0.0431
26 | ACTTTTC | 0.145 | 0.0963 | -0.157 | -0.214 | 0.101 | -0.85 | 0.16 | -0.00916 | 0.0202 | 0.113
27 | CAGACTA | 0.11 | 0.0355 | 0.133 | -0.407 | 0.102 | 0.947 | -0.155 | 0.158 | 0.18 | 0.0766
28 | CTCGGTA | -0.0154 | -0.198 | 0.0413 | -0.251 | -0.0829 | -0.0861 | 0.013 | -0.0502 | -0.112 | -0.124
29 | CTATCTC | -0.118 | -0.0931 | -0.371 | -0.239 | -0.0559 | -0.315 | -0.097 | -0.204 | -0.0873 | -0.202
30 | GTCAATT | 0.0567 | 0.122 | 0.391 | 0.652 | 0.0273 | 1.66 | -0.0274 | 0.0652 | 0.119 | 0.181
